# Laboratory results taken from paper PMC9911399, “Two distinct binding modes provide the RNA-binding protein RbFox with extraordinary sequence specificity”.
# Positions count from the first letter of the chain named. The list shows a part of the results.
# T1: RBFOX1 RRM RbFoxmut (Fox-RRM*) (Homo sapiens, UniProt Q9NWB1 109-208, R118D;E147R;N151S;E152T)
# T1 sequence: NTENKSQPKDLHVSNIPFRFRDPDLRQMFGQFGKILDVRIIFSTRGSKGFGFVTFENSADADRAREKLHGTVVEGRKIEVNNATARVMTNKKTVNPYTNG
# B1: AGUUCCU (DNA:RNA)
# RNA: GGGAGACCGGAAUUCAGAUUGUCCAGUUCCUUUAAAUCCCGUCGUAGCCACCA
# DNA 1: CAATCTGAATTCCGGTCTCCC
# DNA 2: TGGTGGCTACGACGGGATT
# B2: GGUCGUG (DNA:RNA)
# RNA: B1 RNA with A25G, U28C, C29G, C30U, U31G
# DNA 1: CAATCTGAATTCCGGTCTCCC
# DNA 2: TGGTGGCTACGACGGGATT
# B3: CUCGAAU (DNA:RNA)
# RNA: B1 RNA with A25C, G26U, U27C, U28G, C29A, C30A
# DNA 1: CAATCTGAATTCCGGTCTCCC
# DNA 2: TGGTGGCTACGACGGGATT
# B4: CUAGUUA (DNA:RNA)
# RNA: GGGAGACCGGAAUUCAGAUUGUCCCUAGUUAUUAAAUCCCGUCGUAGCCACCA
# DNA 1: CAATCTGAATTCCGGTCTCCC
# DNA 2: TGGTGGCTACGACGGGATT
# B5: UUCUGAG (DNA:RNA)
# RNA: B1 RNA with A25U, G26U, U27C, C29G, C30A, U31G
# DNA 1: CAATCTGAATTCCGGTCTCCC
# DNA 2: TGGTGGCTACGACGGGATT
# B6: UAGGAGA (DNA:RNA)
# RNA: B4 RNA with C25U, U26A, A27G, U29A, U30G
# DNA 1: CAATCTGAATTCCGGTCTCCC
# DNA 2: TGGTGGCTACGACGGGATT
# B7: CUCCCGC (DNA:RNA)
# RNA: B4 RNA with A27C, G28C, U29C, U30G, A31C
# DNA 1: CAATCTGAATTCCGGTCTCCC
# DNA 2: TGGTGGCTACGACGGGATT
# B8: CACUCUA (DNA:RNA)
# RNA: B4 RNA with U26A, A27C, G28U, U29C
# DNA 1: CAATCTGAATTCCGGTCTCCC
# DNA 2: TGGTGGCTACGACGGGATT
# B9: CGGUUCC (DNA:RNA)
# RNA: B1 RNA with A25C, U27G, C29U, U31C
# DNA 1: CAATCTGAATTCCGGTCTCCC
# DNA 2: TGGTGGCTACGACGGGATT
# B10: GCGAGAA (DNA:RNA)
# RNA: B4 RNA with C25G, U26C, A27G, G28A, U29G, U30A
# DNA 1: CAATCTGAATTCCGGTCTCCC
# DNA 2: TGGTGGCTACGACGGGATT
# B11: AGUCUCA (DNA:RNA)
# RNA: B1 RNA with U28C, C29U, U31A
# DNA 1: CAATCTGAATTCCGGTCTCCC
# DNA 2: TGGTGGCTACGACGGGATT
# B12: UACGACU (DNA:RNA)
# RNA: B1 RNA with A25U, G26A, U27C, U28G, C29A
# DNA 1: CAATCTGAATTCCGGTCTCCC
# DNA 2: TGGTGGCTACGACGGGATT
# B13: ACCGUUC (DNA:RNA)
# RNA: B4 RNA with C25A, U26C, A27C, A31C
# DNA 1: CAATCTGAATTCCGGTCTCCC
# DNA 2: TGGTGGCTACGACGGGATT
# B14: CACCGCU (DNA:RNA)
# RNA: B1 RNA with A25C, G26A, U27C, U28C, C29G
# DNA 1: CAATCTGAATTCCGGTCTCCC
# DNA 2: TGGTGGCTACGACGGGATT
# B15: UCGGUGA (DNA:RNA)
# RNA: B4 RNA with C25U, U26C, A27G, U30G
# DNA 1: CAATCTGAATTCCGGTCTCCC
# DNA 2: TGGTGGCTACGACGGGATT
# B16: GAGUGGU (DNA:RNA)
# RNA: B1 RNA with A25G, G26A, U27G, C29G, C30G
# DNA 1: CAATCTGAATTCCGGTCTCCC
# DNA 2: TGGTGGCTACGACGGGATT
# B17: UAAACUG (DNA:RNA)
# RNA: B4 RNA with C25U, U26A, G28A, U29C, A31G
# DNA 1: CAATCTGAATTCCGGTCTCCC
# DNA 2: TGGTGGCTACGACGGGATT
# B18: AGCUACG (DNA:RNA)
# RNA: B1 RNA with U27C, C29A, U31G
# DNA 1: CAATCTGAATTCCGGTCTCCC
# DNA 2: TGGTGGCTACGACGGGATT
# B19: CUUGUGC (DNA:RNA)
# RNA: B4 RNA with A27U, U30G, A31C
# DNA 1: CAATCTGAATTCCGGTCTCCC
# DNA 2: TGGTGGCTACGACGGGATT
# B20: CCGAGAG (DNA:RNA)
# RNA: B4 RNA with U26C, A27G, G28A, U29G, U30A, A31G
# DNA 1: CAATCTGAATTCCGGTCTCCC
# DNA 2: TGGTGGCTACGACGGGATT
# Biological target: T1, RBFOX1 RRM RbFoxmut (Fox-RRM*)
# Experiment: EMSA; HiTS-Eq, 1 nM pool, 10 min; buffer printed only for the single-RNA assays: 10 mM Tris pH 7.5, 150 mM NaCl, 3.4 mM EDTA, 0.001% NP-40, 30 C
# Conditions: tags: His6 N-terminal (pET28a); label: 5' 32P
# Summary of the method: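 A pool of RNA with 7 randomized nucleotides, 5′-radiolabelled and with DNA-annealed flanks, was equilibrated at 1 nM for 10 min in 50 µL with purified RbFox RRM, wild type or mutant, across increasing protein concentrations. Free RNA was separated by 8% native PAGE, excised, reverse-transcribed, barcoded by PCR and sequenced. Relative association constants were obtained from read-count changes of each RNA species versus the control reaction and normalised to the cognate motif.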
row,Binder,binding signal
1,B1,0.0589 KA relative to UGCAUGU
2,B2,0.242 KA relative to UGCAUGU
3,B3,0.106 KA relative to UGCAUGU
4,B4,0.118 KA relative to UGCAUGU
5,B5,0.0858 KA relative to UGCAUGU
6,B6,0.0716 KA relative to UGCAUGU
7,B7,0.0628 KA relative to UGCAUGU
8,B8,0.113 KA relative to UGCAUGU
9,B9,0.104 KA relative to UGCAUGU
10,B10,0.0999 KA relative to UGCAUGU
11,B11,0.102 KA relative to UGCAUGU
12,B12,0.0741 KA relative to UGCAUGU
13,B13,0.0746 KA relative to UGCAUGU
14,B14,0.0954 KA relative to UGCAUGU
15,B15,0.133 KA relative to UGCAUGU
16,B16,0.147 KA relative to UGCAUGU
17,B17,0.0614 KA relative to UGCAUGU
18,B18,0.153 KA relative to UGCAUGU
19,B19,0.119 KA relative to UGCAUGU
20,B20,0.102 KA relative to UGCAUGU
